Measured values published in PubChem BioAssay AID504339 (National Center for Advancing Translational Sciences (NCATS), 2011).
Out of some 390,000 compounds screened, about 17,000 (4.4%) were called active. Inconclusive means that the source gave no clear call. Such entries were picked first, then a sample of the others. The call rests on the fitted dose curve; in most records, active means well fitted inhibition curve with a large enough effect; inconclusive means small, poorly fitted or top-dose-only effect; inactive means no such curve, though single readings can be large or run the other way. Potencies beside an inconclusive call are fits to weak or partial responses and may not hold up.

The molecules below were run against Lysine-specific demethylase 4A (Homo sapiens) (UniProt O75164) (assay: qHTS Assay for Inhibitors of JMJD2A-Tudor Domain). Conditions: AlphaScreen JMJD2A-Tudor / H3K4me3 peptide binding; activity change, negative = inhibition: at 114 µM (top of the series).
Further: nearly all actives have a fitted effect of over 50% in size.
On the % scale 0 is the no-effect control and ±100 the full control effect; potency means the concentration at half of the fitted maximal effect; tags describe the fitted curve by direction and shape.

Chain of UniProt O75164 (O75164 whole entry, looked up, the tested form may be a part): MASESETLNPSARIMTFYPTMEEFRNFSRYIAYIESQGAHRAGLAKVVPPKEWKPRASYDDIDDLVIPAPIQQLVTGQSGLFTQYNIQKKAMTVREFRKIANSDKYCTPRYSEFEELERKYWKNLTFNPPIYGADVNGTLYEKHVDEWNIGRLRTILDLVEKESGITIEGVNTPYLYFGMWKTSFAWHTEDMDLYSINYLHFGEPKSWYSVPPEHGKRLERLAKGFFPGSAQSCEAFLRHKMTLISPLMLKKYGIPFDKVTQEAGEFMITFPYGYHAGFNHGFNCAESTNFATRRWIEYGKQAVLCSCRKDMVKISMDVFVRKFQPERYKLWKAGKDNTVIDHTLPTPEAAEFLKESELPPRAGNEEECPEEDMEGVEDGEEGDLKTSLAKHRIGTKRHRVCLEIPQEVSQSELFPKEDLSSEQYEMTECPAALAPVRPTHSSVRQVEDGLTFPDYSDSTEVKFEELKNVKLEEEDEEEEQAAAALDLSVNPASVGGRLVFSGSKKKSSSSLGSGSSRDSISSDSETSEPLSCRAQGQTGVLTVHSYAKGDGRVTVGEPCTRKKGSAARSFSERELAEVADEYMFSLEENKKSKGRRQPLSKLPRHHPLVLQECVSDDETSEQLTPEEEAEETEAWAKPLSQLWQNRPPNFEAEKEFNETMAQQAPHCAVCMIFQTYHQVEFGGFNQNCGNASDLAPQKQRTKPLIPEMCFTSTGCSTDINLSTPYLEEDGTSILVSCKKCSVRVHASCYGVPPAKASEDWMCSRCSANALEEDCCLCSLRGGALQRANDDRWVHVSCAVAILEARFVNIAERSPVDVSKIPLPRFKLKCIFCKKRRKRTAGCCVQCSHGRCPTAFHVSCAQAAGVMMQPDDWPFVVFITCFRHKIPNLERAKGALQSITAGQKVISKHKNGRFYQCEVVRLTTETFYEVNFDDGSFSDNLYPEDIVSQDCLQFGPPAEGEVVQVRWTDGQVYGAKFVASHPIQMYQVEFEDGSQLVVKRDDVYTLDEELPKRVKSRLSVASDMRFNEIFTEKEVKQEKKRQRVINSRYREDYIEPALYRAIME

SMILES | Potency | activity change, negative = inhibition
O=C(NCc1ccccc1)c1ccc2nc(-c3ccco3)c(-c3ccco3)nc2c1 | active: 20 µM | –
NC(=S)n1[nH]c(-c2ccc([N+](=O)[O-])cc2)c(N=Nc2ccc(Cl)cc2)c1=O | active: 63.1 µM | –
CN(C)CCCNC(=O)N1c2ccccc2C=Cc2ccccc21 | inconclusive: 39.8 µM [inhibitor, single point] | –
COCCNC(=O)c1cccc(OC2CCN(Cc3ccc(Cl)c(F)c3)CC2)c1 | – | inactive: -7.55%
O=C1c2ccccc2C(=O)C1Cc1cccc2ccccc12 | inconclusive: 79.4 µM [inhibitor, single point] | –
CN(Cc1nc(-c2ccc3c(c2)OCO3)no1)CC1(N2CCOCC2)CCCCC1 | – | inactive: -8.44%
Cc1cc(C)cc(N(C(=O)CNS(=O)(=O)c2ccccc2)C(C(=O)NCc2ccccc2)c2ccc(C)o2)c1 (stereo unspecified) | – | inactive: -13.5%
O=C(N/N=C\c1cc(Cl)ccc1O)c1ccc(S(=O)(=O)N2CCCCC2)cc1 | inconclusive: 50.1 µM [inhibitor, partial curve] | –
CCOC(=O)CC(=O)CSc1ncnc2c1nnn2-c1ccccc1 | – | inactive: -6.9%
Nc1nc(SCc2cccnc2)c2ncn(C3OC(CO)C(O)C3O)c2n1 (stereo unspecified) | – | inactive: -13.1%
COc1ccccc1-c1c(C)nn2c(N3CCN(c4ccccc4OC)CC3)cc(C)nc12 | inconclusive: 28.2 µM [inhibitor, full curve] | –
COc1ccccc1NS(=O)(=O)c1cc(NC(=O)C2CCCC2)ccc1N1CCOCC1 | inconclusive: 50.1 µM [inhibitor, partial curve] | –
CCN(CC)c1ccc(-c2n[nH]c(=S)n2-c2ccccc2)cc1 | active: 20 µM | –
COc1ccc(S(=O)(=O)N2CCCC(C(=O)Nc3cccnc3)C2)cc1Cl (stereo unspecified) | inconclusive: 3.55 µM [inhibitor, single point] | –
COc1ccccc1CNC(=O)CSc1ncc2c(n1)-c1cc(Cl)ccc1N(Cc1ccccc1)S2(=O)=O | – | inactive: -0.974%
CCOc1ccc(-c2nc(SCC(=O)NCCCOC)c(-c3ccccc3)[nH]2)cc1 | inconclusive: 17.8 µM [inhibitor, full curve] | –
c1cc2c(cc1C1CCCCC1)c1c3n2CCN=C3CCC1 | inconclusive: 79.4 µM [inhibitor, single point] | –
CC(C)Cc1nnc(NC(=O)CN2C(=O)NC3(CC(C)CC(C)(C)C3)C2=O)s1 (stereo unspecified) | – | inactive: -11%
CCOC(=O)C(C)Sc1nc2c(c(=O)[nH]c(=O)n2C)n1Cc1ccc(Cl)cc1 (stereo unspecified) | – | inactive: -16.9%
Cc1cc(C)n2nc(SCC(=O)Nc3ccc(F)cc3)nc2n1 | inconclusive: 15.8 µM [inhibitor, full curve] | –
Cc1cccc(C(=O)NNC(=O)C2CC2)c1 | – | inactive: 3.9%
